Source: the supplement of paper PMC3334620
Over roughly 33,000 sequences, “E-score (-0.5 to 0.5)” has its median near -0.01; the highest 2% begin near 0.26. Some of the results follow.

Each sequence was assayed against Ste12 (UniProt P13574) (assay: PBM E-score (8-mer binding enrichment) (E-score (-0.5 to 0.5)); higher = stronger / more preferred TF binding; most listed sequences are background and not binding sites). Conditions: protein concentration: 200 nM; construct: GST-DNA-binding domain.
Procedure: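 Universal 'all 10-mer' protein binding microarrays (Agilent AMADID 015681) probed with GST-tagged S. cerevisiae TFs (full-length or DBD) made by in vitro transcription/translation (PURExpress), about 100-200 nM. Bound TF was detected with fluorescent anti-GST. Each ungapped 8-mer (which stands for itself and its reverse complement) is scored by the PBM enrichment score (E-score), a modified Wilcoxon-Mann-Whitney statistic from -0.5 to +0.5, computed with the Universal PBM Analysis Suite. Scale: above 0.35 generally sequence-specific binding.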
With CGCGATAC the “PBM E-score” value was 0.0123.
CGGAATCC was tested, and the “PBM E-score” value was -0.0349.
For CTCGTGCA, the “PBM E-score” value was -0.0913.
For GACACAAA, the “PBM E-score” value was 0.155.
For CCTTTCTA, the “PBM E-score” value was 0.102.
In the case of CGTAGGAC, the “PBM E-score” value is reported as -0.246.
In the case of AGGCGAGA, the “PBM E-score” value is reported as -0.195.
With AGAATGAG the “PBM E-score” value was -0.0488.
In the case of ACAAGAAA, the “PBM E-score” value is reported as 0.28.
For ACCAGGAC, the “PBM E-score” value was 0.0194.
With GGAACAAA the “PBM E-score” value was 0.229.
In the case of GAAAATTA, the “PBM E-score” value is reported as 0.206.
With GCGACTCA the “PBM E-score” value was -0.131.
In the case of TCACGTGA, the “PBM E-score” value is reported as -0.0719.
GTCCCAAA was tested, and the “PBM E-score” value was 0.077.
In the case of CTAACTAC, the “PBM E-score” value is reported as -0.0421.
With CAGGCTCG the “PBM E-score” value was 0.00069.
For CTTGAGCA, the “PBM E-score” value was -0.0692.
In the case of ACGGCAAT, the “PBM E-score” value is reported as 0.0277.
CATTTGAC was tested, and the “PBM E-score” value was 0.0579.
With CCGACGGA the “PBM E-score” value was 0.0201.
In the case of GTAGGACA, the “PBM E-score” value is reported as -0.0332.
With GAGCGGGC the “PBM E-score” value was -0.0749.
With AGGATGAA the “PBM E-score” value was 0.128.
With ATGGGCAC the “PBM E-score” value was 0.162.
For AGTATAAA, the “PBM E-score” value was 0.228.
With CGTCTGTA the “PBM E-score” value was -0.0457.
With GCGCTCAC the “PBM E-score” value was -0.123.
For ACAATGGG, the “PBM E-score” value was 0.07.
With CCCGCGTA the “PBM E-score” value was 0.0398.
With CTCGGTAC the “PBM E-score” value was -0.0909.
With TACCGGAA the “PBM E-score” value was -0.0157.
In the case of CCCGACAA, the “PBM E-score” value is reported as 0.178.
For AGTAGAGA, the “PBM E-score” value was -0.0874.
With CTAGGACC the “PBM E-score” value was -0.251.
In the case of CTGCACGC, the “PBM E-score” value is reported as -0.179.
In the case of AAGCCTAG, the “PBM E-score” value is reported as -0.272.
For ACAGATCG, the “PBM E-score” value was -0.121.
With AGCTGCGG the “PBM E-score” value was -0.101.
With GCGCTATA the “PBM E-score” value was 0.0543.
For CACGTTAA, the “PBM E-score” value was 0.109.
In the case of TGAGACCA, the “PBM E-score” value is reported as 0.0123.
In the case of ATCTGTTG, the “PBM E-score” value is reported as -0.0026.
In the case of GAAACCCA, the “PBM E-score” value is reported as 0.246.
With CTTAACAA the “PBM E-score” value was 0.194.
For AGTCCCGG, the “PBM E-score” value was -0.116.
With AAAGCTCA the “PBM E-score” value was -0.172.
With AGACAATC the “PBM E-score” value was 0.0818.
In the case of CCGGGACG, the “PBM E-score” value is reported as -0.0294.
With CATCTCCA the “PBM E-score” value was 0.00191.
ATTGACTG was tested, and the “PBM E-score” value was 0.0633.
TTATACAA was tested, and the “PBM E-score” value was 0.0165.
For ATTTTCGG, the “PBM E-score” value was 0.164.
ACGAACAT was tested, and the “PBM E-score” value was 0.044.
CGCTGTAA was tested, and the “PBM E-score” value was 0.0745.
ACACATTG was tested, and the “PBM E-score” value was 0.212.
With AGGGCCAG the “PBM E-score” value was -0.0826.
In the case of TGCTTCCA, the “PBM E-score” value is reported as -0.204.
With ACTGCAGT the “PBM E-score” value was -0.207.
For AGAATTCA, the “PBM E-score” value was 0.162.
In the case of CTTCTGGA, the “PBM E-score” value is reported as -0.00383.
With GGCCTCCC the “PBM E-score” value was -0.0507.
In the case of ACTCCCAT, the “PBM E-score” value is reported as 0.0994.
In the case of CATCCGAC, the “PBM E-score” value is reported as 0.0518.
For ACAGGATG, the “PBM E-score” value was 0.0588.
ACAGGAGA was tested, and the “PBM E-score” value was 0.206.
With ACTCCCAG the “PBM E-score” value was 0.092.
ATCAGCCG was tested, and the “PBM E-score” value was -0.109.
In the case of ACATCCGC, the “PBM E-score” value is reported as 0.0592.
With TGGGAGAA the “PBM E-score” value was -0.106.
With CAATAGCG the “PBM E-score” value was 0.0681.
With CTATTAAC the “PBM E-score” value was -0.0267.
In the case of AGCCCTAC, the “PBM E-score” value is reported as -0.109.
For GTGTTGCA, the “PBM E-score” value was 0.159.
GTCATCTA was tested, and the “PBM E-score” value was 0.079.
For GACATGCC, the “PBM E-score” value was -0.138.
For AGAAATCT, the “PBM E-score” value was 0.118.
For GGGATTAA, the “PBM E-score” value was 0.145.
With ATAAGGAA the “PBM E-score” value was 0.0633.
For AGCTCCAT, the “PBM E-score” value was -0.0858.
For GGTATATA, the “PBM E-score” value was 0.159.
For ACACTATA, the “PBM E-score” value was 0.198.
With CATGAGGC the “PBM E-score” value was -0.141.
With GTCTATAA the “PBM E-score” value was 0.113.
For TAAACCCA, the “PBM E-score” value was 0.173.
With CTTATCGA the “PBM E-score” value was 0.117.
For ATCAACAG, the “PBM E-score” value was 0.16.
With AGATAGAA the “PBM E-score” value was -0.0615.
For ACAGGGAC, the “PBM E-score” value was -0.169.
With CTCCGTGC the “PBM E-score” value was -0.128.
With AAGAGCGT the “PBM E-score” value was 0.0448.
With ATTCACAC the “PBM E-score” value was 0.14.
With GCTACGCA the “PBM E-score” value was 0.0244.
For GCTTCTGA, the “PBM E-score” value was 0.145.
AGACATGA was tested, and the “PBM E-score” value was 0.0104.
GGAACTTA was tested, and the “PBM E-score” value was -0.0549.
For CCTAGGAC, the “PBM E-score” value was -0.136.
With GAGTCAGC the “PBM E-score” value was -0.22.
In the case of CCCCTCAC, the “PBM E-score” value is reported as 0.126.
In the case of GCGATGCC, the “PBM E-score” value is reported as -0.135.
For GTGAGCAA, the “PBM E-score” value was -0.0818.
In the case of ACAAATCG, the “PBM E-score” value is reported as 0.0871.
In the case of AGCATATG, the “PBM E-score” value is reported as -0.118.
With ATTGGGGC the “PBM E-score” value was 0.00708.
For AAGGCCCG, the “PBM E-score” value was -0.308.
With AAGATAGG the “PBM E-score” value was -0.0454.
ACTGATTC was tested, and the “PBM E-score” value was 0.0462.
For GAAATTCA, the “PBM E-score” value was 0.239.
With CACGTGCA the “PBM E-score” value was -0.143.
In the case of CTTAGCAA, the “PBM E-score” value is reported as 0.115.
In the case of CCGCAAGC, the “PBM E-score” value is reported as -0.226.
With GTCGCGAC the “PBM E-score” value was 0.389.
For AACCTATG, the “PBM E-score” value was -0.0828.
With CGGTAAGC the “PBM E-score” value was -0.0643.
For AGCTTAAA, the “PBM E-score” value was 0.141.
With ATGAGGGC the “PBM E-score” value was 0.0389.
GGACCTCA was tested, and the “PBM E-score” value was -0.0507.
In the case of GCTTCAAA, the “PBM E-score” value is reported as 0.134.
For AACGTGCC, the “PBM E-score” value was 0.00592.
With AGCTTCTG the “PBM E-score” value was -0.0574.
With GGCACTGA the “PBM E-score” value was -0.0616.
For CTAACTTC, the “PBM E-score” value was -0.0517.
AGAACATC was tested, and the “PBM E-score” value was -0.0976.
In the case of AATGTGCG, the “PBM E-score” value is reported as 0.125.
ACAAAGGC was tested, and the “PBM E-score” value was -0.103.
For CACCCGCA, the “PBM E-score” value was -0.028.
AACAACAT was tested, and the “PBM E-score” value was 0.0818.
For GCGCTTAC, the “PBM E-score” value was -0.198.
ACTCAAGT was tested, and the “PBM E-score” value was -0.252.
For GGGCTACA, the “PBM E-score” value was -0.155.
For TGCGGACA, the “PBM E-score” value was -0.0266.
AGTGTAGG was tested, and the “PBM E-score” value was 0.00693.
In the case of CACAGAGC, the “PBM E-score” value is reported as 0.0587.
With AGATTTTG the “PBM E-score” value was 0.143.
GACATAAC was tested, and the “PBM E-score” value was 0.178.
In the case of TAAACAAA, the “PBM E-score” value is reported as 0.244.
For CGGCTTGA, the “PBM E-score” value was 0.0654.
In the case of CAACGCCC, the “PBM E-score” value is reported as 0.0507.
CTTTGGAA was tested, and the “PBM E-score” value was 0.0562.
With CGGATATA the “PBM E-score” value was 0.199.
For CTACAATC, the “PBM E-score” value was 0.184.
With CCGACAGG the “PBM E-score” value was -0.0536.
For CAATACAG, the “PBM E-score” value was -0.115.
For ATCGCGTG, the “PBM E-score” value was 0.0752.
In the case of AAATTCGC, the “PBM E-score” value is reported as 0.101.
CGCTGCTC was tested, and the “PBM E-score” value was -0.167.
CCTTAATC was tested, and the “PBM E-score” value was -0.00965.
In the case of AGGCTACA, the “PBM E-score” value is reported as -0.0865.
ACTCTCAA was tested, and the “PBM E-score” value was 0.00648.
With CAGGGCCC the “PBM E-score” value was -0.148.
For CGTATTTA, the “PBM E-score” value was 0.244.
In the case of GGCCAGTA, the “PBM E-score” value is reported as 0.143.
In the case of AGATCCCG, the “PBM E-score” value is reported as 0.0252.
With AAGGTTAG the “PBM E-score” value was -0.129.
With CGATCAGC the “PBM E-score” value was -0.0721.
For CACCTCTA, the “PBM E-score” value was -0.0795.
In the case of CTGTTAAC, the “PBM E-score” value is reported as 0.146.
For ACTTAAAG, the “PBM E-score” value was 0.0758.
With AATGTTAT the “PBM E-score” value was 0.265.
In the case of ACCACCCC, the “PBM E-score” value is reported as 0.0858.
For CCTTACCA, the “PBM E-score” value was -0.00923.
In the case of CCAGCACC, the “PBM E-score” value is reported as -0.154.
ATCGATTA was tested, and the “PBM E-score” value was 0.0263.
In the case of GCACTACA, the “PBM E-score” value is reported as -0.231.
In the case of ACGTATCT, the “PBM E-score” value is reported as -0.116.
In the case of CCAATGCC, the “PBM E-score” value is reported as -0.125.
In the case of CGTAGCCC, the “PBM E-score” value is reported as -0.148.
AATGTTGG was tested, and the “PBM E-score” value was 0.145.
For GAAACCGC, the “PBM E-score” value was 0.351.
ATTTAACG was tested, and the “PBM E-score” value was 0.132.
AAGGGCCT was tested, and the “PBM E-score” value was -0.00237.
With AGAGTCGC the “PBM E-score” value was -0.0718.
